Source: PubChem BioAssay AID624296 (National Center for Advancing Translational Sciences (NCATS), 2012)
About 9,900 (2.8%) of roughly 350,000 compounds were called active. Inconclusive means that the source gave no clear call. Such entries were picked first, then a sample of the others. Calls follow the shape of the dose curve; as a rule, active = well fitted activation curve with a large enough effect; inconclusive = small, poorly fitted or top-dose-only effect; inactive = no such curve, though single readings can be large or run the other way. Potencies of inconclusive entries are left out as doubtful fits.

Assay: A quantitative high throughput screen for small molecules that induce DNA re-replication in MCF 10a normal breast cells. Also: nearly all actives have a fitted effect of over 50% in size.
Details: MCF 10A DNA re-replication, Hoechst nuclear intensity, 48 h; series mostly up to 46.1 µM
Potency is read from the fitted curve at half-maximal effect; tags tell the direction and shape of the fitted curve.

SMILES | Potency
O=C(NCc1ccc2c(c1)OCO2)c1ccccc1 | inactive
COc1ccc(C2C3=C(CC(C)(C)CC3=O)Oc3ncn(Cc4ccccc4)c(=N)c32)cc1 (configuration not stated) | active: 16.4 µM
COc1ccc(-c2[nH]c(-c3ccc(C(=O)O)cc3)nc2-c2ccccc2)cc1 | inactive
O=C(N/N=C/c1cc([N+](=O)[O-])ccc1O)C(O)(c1ccccc1)c1ccccc1 | inconclusive [activator, single point]
CCCc1ccc(OCc2nc(-c3ccc(NC(=O)c4cccs4)cc3)no2)cc1 | inconclusive [activator, partial curve, poor fit]
COc1ccccc1CNC(=O)c1cn(C)c2ccc(S(=O)(=O)N3CCCC3)cc2c1=O | inconclusive [activator, single point]
COc1ccc(Cl)cc1NC(=S)N1CCCCCC1 | inactive
O=C1N[C@@H](Cc2ccccc2)C(=O)N2[C@@H]3N(S(=O)(=O)c4ccccc4)c4ccccc4[C@]3(Br)C[C@@H]12 | inconclusive [activator, single point]
COc1cccc(CC2(CO)CCCN(Cc3nc(-c4cccs4)oc3C)C2)c1 (configuration not stated) | inconclusive [activator, single point]
CN1C(=O)/C(=C/c2ccc(O)c([N+](=O)[O-])c2)NC1=S | inconclusive [activator, single point]
O=C(COC(=O)/C=C/c1ccc([N+](=O)[O-])cc1)NNC(=O)c1ccccc1 | inactive
CCOC(=O)c1c(NC(=O)CN2C(=O)NC(C)(c3ccccc3)C2=O)sc(C)c1C (configuration not stated) | active: 10.3 µM
COCCn1c(SCC(=O)c2[nH]c(C)c(C(C)=O)c2C)nc2ccccc2c1=O | inconclusive [activator, single point]
O=C(CSc1ccc(S(=O)(=O)N2CCOCC2)cn1)Nc1ccc(F)c(F)c1 | inactive
CCOc1ccc(-c2nnc3sc(COc4ccc(Cl)cc4)nn23)cc1 | inactive
CNC(=O)c1ccc(NC(=O)c2cc(S(=O)(=O)N(C)C)ccc2N2CCCC2)cc1 | inconclusive [activator, single point]
CCOC(=O)CNc1c(-c2ccc(O)cc2)nc2ccccn12 | inconclusive [activator, single point]
O=C(CSc1nnc(-c2ccco2)o1)c1ccccc1 | inconclusive [activator, partial curve, poor fit]
Cc1nc2ccc(NC(=O)c3ccc(Cl)c(S(=O)(=O)N(C)c4ccccc4)c3)cc2s1 | inconclusive [activator, partial curve]
COc1ccc(CN(C)C(=O)Cc2ccc(OC)c(S(=O)(=O)N3CCOCC3)c2)cc1 | inconclusive [activator, full curve, poor fit]
CCCCNC(=O)C(C)N(CCN(C)C)C(=O)CCCCCN1C(=O)NC(c2ccc(Cl)cc2)C(C(=O)OCc2ccccc2)=C1C (configuration not stated) | inconclusive [activator, single point]
COc1ccc2c(Cl)c(C(=O)N/N=C3\CCCC(=O)C3)sc2c1 | inconclusive [activator, single point]
Cc1ccc(-c2nc3ccccc3s2)cc1S(=O)(=O)N1CCOCC1 | inconclusive [activator, single point]

SMILES | Potency
CCN1C/C(=C/c2cccc([N+](=O)[O-])c2)C(=O)/C(=C/c2cccc([N+](=O)[O-])c2)C1 | active: 0.82 µM
COc1ccc(/C=N\NC(=O)COc2ccc(C(C)(C)C)cc2)cc1Cn1nc(C)cc1C | inconclusive [activator, partial curve, poor fit]
FC(F)(F)c1cc(-c2ccco2)nc(NCc2ccccc2)n1 | inconclusive [activator, single point]
CC(=O)n1c2ccccc2c2ccccc21 | inconclusive [activator, single point]
O=C(Cc1cccc2ccccc12)N/N=C/c1ccc2cccc(O)c2n1 | inconclusive [activator, single point]
CCOc1ccccc1Nc1nnc(SCC(=O)Nc2cc(C)on2)s1 | inconclusive [activator, single point]
O=S(=O)(c1ccc(OCC(O)CN2CCc3ccccc3C2)cc1)N1CCOCC1 (configuration not stated) | inconclusive [activator, single point]
Cc1ccc2nc3c(cc(C(=O)NCCc4ccccc4)c(=N)n3CCN3CCOCC3)c(=O)n2c1 | active: 18.4 µM
COc1cc(OC)c(OC)cc1CNCc1ccc2c(c1)OCO2 | inactive
COc1ccc2c(=O)c(-c3ccc(C)cc3)c(-c3ccccc3)oc2c1 | inconclusive [activator, full curve]
Clc1ccccc1CSc1nnc(/C=C/c2ccccc2)o1 | inconclusive [activator, single point]
O=C(CSc1nncn1-c1ccccc1)N1CCCC1 | inactive
CCCCc1cc(=O)oc2cc(OCC(=O)NCCN3CCOCC3)c(Cl)cc12 | inconclusive [activator, full curve, poor fit]
COc1ccc(C(=O)Nc2ccc(N3CCCC3)cc2)cc1 | inactive
O=C(O)c1cc(O)c2c(c1)[C@@H]([C@H]1c3cc(C(=O)O)cc(O)c3C(=O)c3c(O[C@@H]4O[C@H](CO)[C@@H](O)[C@H](O)[C@H]4O)cccc31)c1cccc(OC3O[C@H](CO)[C@@H](O)[C@H](O)[C@H]3O)c1C2=O (some centres not stated) | inactive
CC(C)(CNCc1ccccc1)NS(=O)(=O)c1ccccc1 | inconclusive [activator, single point]
Cc1c(Cl)cccc1-c1ccc(CNCc2ccccn2)o1 | inconclusive [activator, single point]
CC(Oc1ccc(Cl)cc1)C(=O)N/N=C/c1ccsc1 (configuration not stated) | inactive
CC(=O)NCCNc1nc2c(-c3cccc(C(F)(F)F)c3)nnn2c2ccccc12 | inconclusive [activator, single point]
COc1ccc([C@H]2CC(=O)C=C(c3c(OC)cccc3OC)C2)cc1 | active: 1.16 µM
N#Cc1c(C(F)(F)F)cc(-c2ccc(Cl)cc2)[nH]c1=O | active: 4.61 µM
CC(OC(=O)CNC(=O)c1ccc(Cl)c([N+](=O)[O-])c1)C(=O)NC1CCCCC1C (configuration not stated) | inconclusive [activator, partial curve, poor fit]
c1ccc(-c2sc3ccccc3c2-c2ccc(OCCN3CCOCC3)cc2)cc1 | inconclusive [activator, single point]

SMILES | Potency
CC1CCCN(S(=O)(=O)c2ccc3c(c2)CCN3C(=O)C2CCC2)C1 (configuration not stated) | inconclusive [activator, single point]
Cc1ccc(/C=C/S(=O)(=O)NCc2ccc(F)cc2)cc1 | inconclusive [activator, full curve, poor fit]
COc1ccc(OC)c(CCNC(=O)Cn2ccc3cc(S(=O)(=O)N4CCCC4)ccc32)c1 | inactive
O=C(OCC(=O)N1CCCc2ccccc21)c1ccc(Br)o1 | inconclusive [activator, single point]
COc1ccc(-n2c(COc3ccccc3)n[nH]c2=S)cc1 | inactive
C/C(=N\NC(=O)c1nnn(-c2nonc2N)c1-c1cccs1)c1cccc(O)c1 | inactive
Cc1c(CC(=O)N2C[C@H]3C[C@@H](C2)c2cccc(=O)n2C3)c(=O)oc2cc3occ(C(C)(C)C)c3cc12 | inconclusive [activator, full curve, poor fit]
COc1ccc(NC2CCCN(C(=O)c3cc4ncccn4n3)C2)cc1 (configuration not stated) | inactive
CN1CCN(S(=O)(=O)c2cccc(C(=O)Nc3cc(C(F)(F)F)ccc3N3CCCCC3)c2)CC1 | inactive
Cc1cc(O)c2c(c1)CC1C3CCC4CC(=O)CCC4(C)C3CC(=O)C21C (configuration not stated) | active: 16.4 µM
Cc1nn(-c2ccccc2)c(C)c1/C=N/NC(=O)c1cc(-c2cccc3ccccc23)n[nH]1 | inconclusive [activator, single point]
COc1ccc(C2(O)CCN(CC(=O)Nc3nc(-c4ccccc4)cs3)CC2)cc1 | inactive
COc1cc(NS(=O)(=O)c2ccc(C)c(C)c2)c(OC)cc1Cl | inconclusive [activator, partial curve, poor fit]
COc1ccc(N2CCOCC2)c(NC(=O)COc2cccc(C)c2C)c1 | inconclusive [activator, partial curve, poor fit]
COc1ccc(N(CC(=O)NN=C2CCN(C)CC2)S(=O)(=O)c2ccc(NC(C)=O)cc2)cc1 | inactive
CCOc1ccc(N=Nc2c(=O)[nH]n3c(=O)cc(C)[nH]c23)cc1 | inactive
COc1cc(CNc2ccc(CNc3ncn[nH]3)cc2)cc(Cl)c1OCc1ccccc1 | inconclusive [activator, partial curve, poor fit]
Cc1ccc2c(c1)C(=O)C(=O)N2CCCOc1ccccc1C | inconclusive [activator, single point]
CC(C)N1CCC(N2CCN(CCCc3ccccc3)CC2CCO)CC1 (configuration not stated) | inconclusive [activator, single point]
O=C(N/N=C/C(Br)=C\c1ccccc1)c1ccco1 | inconclusive [activator, single point]
CN(Cc1ccc(Cl)cc1)C(=O)CCl | inconclusive [activator, single point]
